Experimental data published in patent US10299477B2 (priority 2015, dated 2019).

Assays:
Format in all cases: in vivo
[1] = tested on: Botrytis cinerea; experiment: Test Example B: Gray mold on tomato; conditions: for Test B control value (gray mold on tomato): preventive, control value class; for Test B (control value class, gray mold on tomato): in vivo
Excerpt: [Test Example B] Gray Mold on Tomato
Seeds of a test plant (tomato variety: Oogata Fukuju) were planted followed by cultivating until three to five first leaves (true leaves) appeared.

[2] = tested on: Plasmopara viticola; experiment: Test Example G: Downy mildew on vine; conditions: for Test G (control value class): 250 ppm spray; for Test G control value (downy mildew on vine): 250 ppm spray (2.5 ml/pot), preventive, control value class; for Test G (control value class, downy mildew on vine): 250 ppm, sprayed 2.5 ml/pot before inoculation
Excerpt: [Test Example G] Downy Mildew on Vine
Seeds of a test plant (grape variety: Neomuscat) were planted followed by cultivating until three to four first leaves appeared. […] After the sprayed dilutions were dried, a zoosporangia suspension (1-2×10^4 zoosporangia/ml) of Plasmopara viticola was inoculated to the plants by spraying.

[3] = tested on: Puccinia recondita; experiment: Test Example E: Brown rust on wheat; conditions: for Test E control value (brown rust on wheat): preventive, control value class; for Test E (control value class, brown rust on wheat): in vivo
Excerpt: [Test Example E] Brown Rust on Wheat

[4] = tested on: Blumeria graminis f sp. hordei; experiment: Test Example D: Powdery mildew on barley; conditions: for Test D control value (powdery mildew on barley): preventive, control value class; for Test D (control value class, powdery mildew on barley): in vivo
Excerpt: [Test Example D] Powdery Mildew on Barley
After the sprayed dilutions were dried, conidia of Blumeria graminis f sp. hordei were inoculated to the plants by shaking off.

[5] = tested on: Alternaia brassicicola; experiment: Test Example C: Alternaria sooty spot on cabbage; conditions: for Test C (control value class): Alternaria sooty spot on cabbage; for Test C control value (Alternaria sooty spot on cabbage): preventive, control value class; for Test C (control value class, Alternaria sooty spot on cabbage): in vivo
Excerpt: [Test Example C] Alternaria Sooty Spot on Cabbage
Seeds of a test plant (cabbage variety: Shikidori) were planted followed by cultivating until the cotyledons extended.

[6] = gray mold on tomato, Botrytis cinerea, 250 ppm spray
[7] = downy mildew on vine, Plasmopara viticola, 7-10 days after inoculation
[8] = brown rust on wheat, Puccinia recondita, 250 ppm spray
[9] = powdery mildew on barley, 250 ppm spray
[10] = evaluated 7-10 days after inoculation

Row | Structure (SMILES) | Test B (control value class) [1, 6] | Test G (control value class) [2, 7] | Test E (control value class) [3, 8] | Test D (control value class) [4, 9] | Test C (control value class) ([5]; 250 ppm spray) | Test B control value (gray mold on tomato) ([1]; 250 ppm spray) | Test G control value (downy mildew on vine) ([2]; 7-10 days after inoculation) | Test E control value (brown rust on wheat) ([3]; 250 ppm spray) | Test D control value (powdery mildew on barley) ([4]; 250 ppm spray) | Test C control value (Alternaria sooty spot on cabbage) ([5]; 250 ppm spray) | also measured
1 | CCn1c(-c2c(F)cc(F)cc2F)c(-c2ccccc2F)cc(Cl)c1=O [Compound 529] | H (H shows more than 50% of control values) | H (H shows more than 50% of control values) | H (H shows more than 50% of control values) | H (H shows more than 50% of control values) | H (H shows more than 50% of control values) | – | – | – | – | – | –
2 | CCN1C(=O)CCC(c2ccc(C)cc2)=C1c1c(F)cccc1F [Compound 267] | – | – | – | – | – | L (L shows 50% or less of control values) | L (L shows 50% or less of control values) | H (H shows more than 50% of control values) | H (H shows more than 50% of control values) | H (H shows more than 50% of control values) | –
3 | COc1cc(OC)c(Cl)c(-c2ccc(=O)n(CC(F)(F)F)c2-c2c(F)cccc2F)c1 [Compound 335] | – | – | – | – | – | H (H shows more than 50% of control values) | H (H shows more than 50% of control values) | H (H shows more than 50% of control values) | H (H shows more than 50% of control values) | H (H shows more than 50% of control values) | –
4 | Cc1cc(-c2cccc(F)c2F)c(-c2c(F)cccc2F)n(C)c1=O [Compound 538] | H (H shows more than 50% of control values) | H (H shows more than 50% of control values) | H (H shows more than 50% of control values) | H (H shows more than 50% of control values) | H (H shows more than 50% of control values) | – | – | – | – | – | –
5 | CCn1c(-c2c(F)cccc2F)c(-c2cccc(OC(F)(F)F)c2)cc(Cl)c1=O [Compound 218] | – | – | – | – | – | L (L shows 50% or less of control values) | L (L shows 50% or less of control values) | H (H shows more than 50% of control values) | H (H shows more than 50% of control values) | H (H shows more than 50% of control values) | –
6 | CCn1c(-c2c(F)cc(F)cc2F)c(-c2ccc(OC)cc2Cl)cc(Cl)c1=O [Compound 746] | – | – | – | – | – | – | – | – | – | – | Test B (control value class, gray mold on tomato) [1]: H (H shows more than 50% of control values); Test G (control value class, downy mildew on vine) [2, 10]: L (L shows 50% or less of control values); Test E (control value class, brown rust on wheat) [3]: H (H shows more than 50% of control values); Test D (control value class, powdery mildew on barley) [4]: H (H shows more than 50% of control values); Test C (control value class, Alternaria sooty spot on cabbage) [5]: H (H shows more than 50% of control values)
7 | Cn1c(-c2c(F)cccc2F)c(-c2ccc(Cl)cc2)ccc1=O [Compound 280] | – | – | – | – | – | H (H shows more than 50% of control values) | H (H shows more than 50% of control values) | H (H shows more than 50% of control values) | H (H shows more than 50% of control values) | H (H shows more than 50% of control values) | –
8 | CCn1c(-c2c(F)cccc2F)c(-c2ccc(C)cc2)cc(Br)c1=O [Compound 271] | – | – | – | – | – | H (H shows more than 50% of control values) | H (H shows more than 50% of control values) | H (H shows more than 50% of control values) | H (H shows more than 50% of control values) | H (H shows more than 50% of control values) | –
9 | CCn1c(-c2c(F)cccc2F)c(-c2cc(OCC3CCCC3)ccc2Cl)ccc1=O [Compound 323] | – | – | – | – | – | L (L shows 50% or less of control values) | L (L shows 50% or less of control values) | L (L shows 50% or less of control values) | H (H shows more than 50% of control values) | H (H shows more than 50% of control values) | –
10 | CCn1c(-c2c(F)cc(C)cc2F)c(-c2cc(F)ccc2Cl)cc(Cl)c1=O [Compound 708] | – | – | – | – | – | – | – | – | – | – | Test B (control value class, gray mold on tomato) [1]: L (L shows 50% or less of control values); Test G (control value class, downy mildew on vine) [2, 10]: L (L shows 50% or less of control values); Test E (control value class, brown rust on wheat) [3]: H (H shows more than 50% of control values); Test D (control value class, powdery mildew on barley) [4]: L (L shows 50% or less of control values); Test C (control value class, Alternaria sooty spot on cabbage) [5]: L (L shows 50% or less of control values)
11 | C=CCOc1ccc(Cl)c(-c2ccc(=O)n(CC)c2-c2c(F)cccc2F)c1 [Compound 313] | – | – | – | – | – | H (H shows more than 50% of control values) | L (L shows 50% or less of control values) | H (H shows more than 50% of control values) | H (H shows more than 50% of control values) | H (H shows more than 50% of control values) | –
12 | COc1cc(F)c(-c2c(-c3cc(F)ccc3Cl)cc(Cl)c(=O)n2C)c(F)c1 [Compound 761] | – | – | – | – | – | – | – | – | – | – | Test B (control value class) ([1]; Gray mold on tomato, control value=100{1-(n/3)}): H (H shows more than 50% of control values); Test G (control value class) ([2]; Downy mildew on vine, 2.5 ml/pot, evaluated 7-10 days after inoculation): L (L shows 50% or less of control values); Test E (control value class) ([3]; Brown rust on wheat, control value=100{1-(n/3)}): H (H shows more than 50% of control values); Test D (control value class) ([4]; Powdery mildew on barley, control value=100{1-(n/3)}): H (H shows more than 50% of control values); Test C (control value class) ([5]; control value=100{1-(n/3)}): H (H shows more than 50% of control values)
13 | Cn1c(-c2c(F)cccc2F)c(-c2cccc(Cl)c2)cc(Cl)c1=O [Compound 189] | – | – | – | – | – | H (H shows more than 50% of control values) | H (H shows more than 50% of control values) | H (H shows more than 50% of control values) | H (H shows more than 50% of control values) | H (H shows more than 50% of control values) | –
14 | COc1cc(OC)c(Cl)c(-c2ccc(=O)n(C)c2-c2c(F)cc(O)cc2F)c1 [Compound 249] | – | – | – | – | – | H (H shows more than 50% of control values) | L (L shows 50% or less of control values) | H (H shows more than 50% of control values) | L (L shows 50% or less of control values) | H (H shows more than 50% of control values) | –
15 | COc1ccc(Cl)c(-c2ccc(=O)n(C)c2-c2c(F)cc(F)cc2F)c1 [Compound 415] | H (H shows more than 50% of control values) | L (L shows 50% or less of control values) | H (H shows more than 50% of control values) | H (H shows more than 50% of control values) | H (H shows more than 50% of control values) | – | – | – | – | – | –
16 | Cn1c(-c2c(F)cccc2F)c(-c2cc(OCC3CC3)ccc2Cl)ccc1=O [Compound 238] | – | – | – | – | – | H (H shows more than 50% of control values) | H (H shows more than 50% of control values) | H (H shows more than 50% of control values) | H (H shows more than 50% of control values) | H (H shows more than 50% of control values) | –
17 | Cn1c(-c2c(F)cccc2F)c(-c2cccc(F)c2F)cc(Cl)c1=O [Compound 537] | H (H shows more than 50% of control values) | L (L shows 50% or less of control values) | H (H shows more than 50% of control values) | H (H shows more than 50% of control values) | H (H shows more than 50% of control values) | – | – | – | – | – | –
18 | CCCCn1c(-c2c(F)cccc2F)c(-c2cc(OC)ccc2Cl)ccc1=O [Compound 394] | L (L shows 50% or less of control values) | H (H shows more than 50% of control values) | H (H shows more than 50% of control values) | H (H shows more than 50% of control values) | L (L shows 50% or less of control values) | – | – | – | – | – | –
19 | O=c1c(Br)cc(-c2cc(F)ccc2Cl)c(-c2c(F)cccc2F)n1CC(F)F [Compound 393] | H (H shows more than 50% of control values) | L (L shows 50% or less of control values) | H (H shows more than 50% of control values) | H (H shows more than 50% of control values) | L (L shows 50% or less of control values) | – | – | – | – | – | –
